Counter-ions that a name gives are not always drawn. At least one compound was matched to its structure with a doubt left.
Tested on: Total rat MAO
Experiment: Total rat MAO activity (rat liver mitochondrial preparation, colourimetric)
Assay type: biochemical
Settings: rat liver mitochondria; 0.5 mM tyramine; 1 h at 37° C.; read-out: Total MAO inhibitory activity IC50
Description: Rat MAO was prepared from rat liver by rinsing the 1 g liver sample several times in 14 ml KCl-EDTA-solution to remove all blood. Then 1 g liver sample was homogenised in 4 ml ice-cold potassium phosphate buffer (0.1 M, pH 7.4) with an Ultra-Turrax homogeniser (setting 11 000 rpm, 4×10 s). After centrifugation at 500 g for 10 min at 4° C. the supernatant was carefully withdrawn and was centrifuged at 12 300 g for 15 min at 4° C. The supernatant was discharged and sedimented mitochondria were resuspended in 4 ml fresh phosphate buffer and centrifuged as previously. The mitochondria were suspended in 4 ml phosphate buffer and homogenized with an Ultra-Turrax homogeniser (setting 11 000 rpm, 2×10 s). Mitochondrial preparate was aliquoted and stored at −70° C. Total MAO activity was measured in a similar way as for VAP-1 SSAO except that 2,4-dichlorophenol was replaced by 1 mM vanillic acid. To each well was added a predetermined amount of inhibitor if required. The amount of inhibitor varied in each assay but was generally at a final concentration of between 10 nM and 800 μM. Controls lacked inhibitor. The inhibitor was in a total volume of 20 μl in water. The following reagents were then added. 0.2 M potassium phosphate buffer pH 7.6 for a total reaction volume of 300 μl, 50 μl of fleshly made chromogenic solution (as above) and 50 μl of MAO preparation. The plates were incubated for 30 min at 37° C. and the background absorbance measured at 490 nm using a Wallac Victor II multilabel counter. To initiate the enzyme reaction 20 μl of 5 mM tyramine (final concentration 0.5 mM) was added and the plate incubated for 1 h at 37° C. The increase in absorbance, reflecting MAO activity, was measured at […]. Inhibition was presented as percent inhibition compared to control after correcting for background absorbance and IC50 values calculated using GraphPad Prism. Clorgyline and pargyline (inhibitors of MAO-A and -B respectively) at 0.5 μM were added to some wells as positive controls for MAO inhibition.

Compound | IC50
COc1ccc(C(O)CN(C)N)cc1 (stereo not drawn) [Compound 9, 2-(1-methylhydrazino)-1-(p-methoxyphenyl)ethanol hydrogenfumarate] | 36 µM
CC[C@@H]([C@H](O)c1ccccc1)N(C)N (racemic) [Compound 21] | 41 µM
C[C@H](C(O)c1ccccc1)N(C)N (single isomer, unassigned) [Compound 48] | 31 µM
COc1ccc(C(CN(C)N)OC)cc1 (racemic) [Compound 37] | 44 µM
C[C@@H]([C@H](O)c1ccccc1)N(C)N (racemic) [Compound 12] | 40 µM
COc1cc2c(cc1OC)C(CO)N(N)CC2 (stereo not drawn) [Compound 8, 2-Amino-6,7-dimethoxy-1,2,3,4-tetrahydroisoquinoline-1-methanol hydrochloride] | 78 µM
C[C@@H]([C@H](O)c1ccccc1)N(C)N [Compound 1, (1R,2S)-2-(1-Methylhydrazino)-1-phenyl-1-propanol hydrogenmaleate] | 31 µM
CCN(N)[C@@H](C)[C@H](O)c1ccccc1 (racemic) [Compound 13] | 25 µM
CN(N)[C@@H]1CCCC[C@]1(O)c1ccccc1 (racemic) [Compound 43] | 10 µM
CCCN(N)C(C)C(O)c1ccccc1 (racemic) [Compound 14] | > 800 µM
COc1ccc(CN(N)C(C)C(O)c2ccccc2)cc1 (racemic) [Compound 18] | 22 µM
CN(N)CC(O)c1ccccc1Cl (racemic) [Compound 29] | 23 µM
CN(N)C(C)(C)C(O)c1ccccc1 (racemic) [Compound 20] | 55 µM
C[C@H]([C@@H](O)c1ccccc1)[N+](C)(C)N (relative stereo) [Compound 4, (1R*,2S*)-1-(2-hydroxy-1-methyl-2-phenylethyl)-1,1-dimethylhydrazinium iodide] | > 500 µM
C[C@@H]([C@H](O)c1ccccc1)N(C)N (relative stereo) [Compound 2, (1R*,2S*)-2-(1-Methylhydrazino)-1-phenyl-1-propanol hydrochloride] | 39 µM
COc1cccc(C(CN(C)N)OC)c1 (stereo not drawn) [Compound 7, 1-[2-methoxy-2-(m-methoxyphenyl)ethyl]-1-methylhydrazine Hydrogenfumarate] | 44 µM
CCC[C@@H]([C@H](O)c1ccccc1)N(C)N (racemic) [Compound 23] | 28 µM

Tested on: collagen-induced arthritis
Experiment: Inhibition of collagen-induced arthritis in mouse
Assay type: in vivo
Settings: DBA/1 mice, 10 mg kg−1 i.p. twice daily, day 23 to day 37; vs vehicle; p<0.05 Dunn's test following Kruskal-Wallis test

Compound | cumulative arthritis score
COc1ccc(C(O)CN(C)N)cc1 (stereo not drawn) [Compound 9, 2-(1-methylhydrazino)-1-(p-methoxyphenyl)ethanol hydrogenfumarate] | A reduction in the cumulative score
